# Some of the results follow.
# B1: CVN-E41G (protein)
# chain: MHHHHHHENLYFQSGNFSQACYNSAIQGSVLTSTCIRTNGGYNTSSIDLNSVIGNVDGSLKWQGSNFIETCRNTQLAGSSELAAECKTRAQQFVSTKINLDDHIAAIDGTLKYE
# Legend:
# Assay in all cases: glycan array binding signal (z-score within array); higher = stronger binding
# Details in all cases: glycan notation: IUPAC condensed, linker removed; mutation: E41G
# [1] = biological target: Gal(a1-3)Gal(b1-4)GlcNAc
# In short: (§1)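 From the Consortium for Functional Glycomics database, 3228 arrays were curated, keeping only those whose protein sequence was available. Binding is given as a within-array Z-score averaged across arrays sharing a protein sequence and across linkers. Negative Z-scores can be read as non-binding.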
# [2] = biological target: Gal(a1-3)Gal(b1-4)GlcNAc(b1-2)Man
# In short: as §1
# [3] = biological target: Gal(a1-3)Gal(b1-4)GlcNAc(b1-2)Man(a1-3)[Gal(a1-3)Gal(b1-4)GlcNAc(b1-2)Man(a1-6)]Man(b1-4)GlcNAc(b1-4)GlcNAc
# In short: as §1
# [4] = biological target: Gal(a1-3)Gal(b1-4)GlcNAc(b1-3)GalNAc
# In short: as §1
# [5] = biological target: Gal(a1-3)Gal(b1-4)GlcNAc(b1-6)GalNAc
# In short: as §1
# [6] = biological target: Gal(a1-3)Gal(b1-4)[Fuc(a1-3)]GlcNAc
# In short: as §1
# [7] = biological target: Gal(a1-3)Gal(b1-4)[Fuc(a1-3)]GlcNAc(b1-2)Man(a1-3)[Gal(a1-3)Gal(b1-4)[Fuc(a1-3)]GlcNAc(b1-2)Man(a1-6)]Man(b1-4)GlcNAc(b1-4)GlcNAc
# In short: as §1
# [8] = biological target: Gal(a1-3)GalNAc
# In short: as §1
# [9] = biological target: Gal(a1-3)[Gal(a1-4)]Gal(b1-4)GlcNAc
# In short: as §1
# [10] = biological target: Gal(a1-4)Gal(b1-3)GlcNAc(b1-2)Man(a1-3)[Gal(a1-4)Gal(b1-3)GlcNAc(b1-2)Man(a1-6)]Man(b1-4)GlcNAc(b1-4)GlcNAc
# In short: as §1
# [11] = biological target: Gal(a1-4)Gal(b1-4)Glc
# In short: as §1
# [12] = biological target: Gal(a1-4)Gal(b1-4)GlcNAc
# In short: as §1
# [13] = biological target: Gal(a1-4)Gal(b1-4)GlcNAc(b1-2)Man(a1-3)[Gal(a1-4)Gal(b1-4)GlcNAc(b1-2)Man(a1-6)]Man(b1-4)GlcNAc(b1-4)GlcNAc
# In short: as §1
# [14] = biological target: Gal(a1-4)Gal(b1-4)GlcNAc(b1-3)Gal(b1-4)Glc
# In short: as §1
# [15] = biological target: Gal(a1-4)GlcNAc
# In short: as §1
# [16] = biological target: Gal(a1-6)Glc
# In short: as §1
# [17] = biological target: Gal(b1-2)Gal
# In short: as §1
# [18] = biological target: Gal(b1-3)Gal
# In short: as §1
# [19] = biological target: Gal(b1-3)Gal(b1-4)GlcNAc
# In short: as §1
# [20] = biological target: Gal(b1-3)GalNAc
# In short: as §1
# [21] = biological target: Gal(b1-3)GalNAc(a1-3)[Fuc(a1-2)]Gal(b1-4)Glc
# In short: as §1
# [22] = biological target: Gal(b1-3)GalNAc(a1-3)[Fuc(a1-2)]Gal(b1-4)GlcNAc
# In short: as §1
# [23] = biological target: Gal(b1-3)GalNAc(b1-3)Gal
# In short: as §1
# [24] = biological target: Gal(b1-3)GalNAc(b1-3)Gal(a1-4)Gal(b1-4)Glc
# In short: as §1
# [25] = biological target: Gal(b1-3)GalNAc(b1-4)Gal(b1-4)Glc
# In short: as §1
# [26] = biological target: Gal(b1-3)GalNAc(b1-4)[Neu5Ac(a2-3)]Gal(b1-4)Glc
# In short: as §1
# [27] = biological target: Gal(b1-3)GlcNAc
# In short: as §1
# [28] = biological target: Gal(b1-3)GlcNAc(a1-3)Gal(b1-4)GlcNAc
# In short: as §1
# [29] = biological target: Gal(b1-3)GlcNAc(a1-6)Gal(b1-4)GlcNAc
# In short: as §1
# [30] = biological target: Gal(b1-3)GlcNAc(b1-2)Man
# In short: as §1
# [31] = biological target: Gal(b1-3)GlcNAc(b1-2)Man(a1-3)[Gal(b1-3)GlcNAc(b1-2)Man(a1-6)]Man(b1-4)GlcNAc(b1-4)GlcNAc
# In short: as §1
# [32] = biological target: Gal(b1-3)GlcNAc(b1-2)Man(a1-3)[Gal(b1-3)GlcNAc(b1-2)Man(a1-6)]Man(b1-4)GlcNAc(b1-4)[Fuc(a1-6)]GlcNAc
# In short: as §1
# [33] = biological target: Gal(b1-3)GlcNAc(b1-2)Man(a1-3)[GlcNAc(b1-4)][Gal(b1-3)GlcNAc(b1-2)Man(a1-6)]Man(b1-4)GlcNAc(b1-4)GlcNAc
# In short: as §1
# [34] = biological target: Gal(b1-3)GlcNAc(b1-2)[Gal(b1-3)GlcNAc(b1-6)]Man(a1-6)[Gal(b1-3)GlcNAc(b1-2)Man(a1-3)]Man(b1-4)GlcNAc(b1-4)GlcNAc
# In short: as §1
# [35] = biological target: Gal(b1-3)GlcNAc(b1-3)Gal(b1-3)GlcNAc
# In short: as §1
# [36] = biological target: Gal(b1-3)GlcNAc(b1-3)Gal(b1-4)Glc
# In short: as §1
# [37] = biological target: Gal(b1-3)GlcNAc(b1-3)Gal(b1-4)GlcNAc
# In short: as §1
# [38] = biological target: Gal(b1-3)GlcNAc(b1-3)Gal(b1-4)GlcNAc(b1-2)Man(a1-3)[Gal(b1-3)GlcNAc(b1-3)Gal(b1-4)GlcNAc(b1-2)Man(a1-6)]Man(b1-4)GlcNAc(b1-4)GlcNAc
# In short: as §1
# [39] = biological target: Gal(b1-3)GlcNAc(b1-3)Gal(b1-4)GlcNAc(b1-2)[Gal(b1-3)GlcNAc(b1-3)Gal(b1-4)GlcNAc(b1-6)]Man(a1-6)[Gal(b1-3)GlcNAc(b1-3)Gal(b1-4)GlcNAc(b1-2)Man(a1-3)]Man(b1-4)GlcNAc(b1-4)[Fuc(a1-6)]GlcNAc
# In short: as §1
# [40] = biological target: Gal(b1-3)GlcNAc(b1-3)Gal(b1-4)GlcNAc(b1-3)Gal(b1-4)GlcNAc(b1-2)[Gal(b1-3)GlcNAc(b1-3)Gal(b1-4)GlcNAc(b1-3)Gal(b1-4)GlcNAc(b1-6)]Man(a1-6)[Gal(b1-3)GlcNAc(b1-3)Gal(b1-4)GlcNAc(b1-3)Gal(b1-4)GlcNAc(b1-2)Man(a1-3)]Man(b1-4)GlcNAc(b1-4)[Fuc(a1-6)]GlcNAc
# In short: as §1
# [41] = biological target: Gal(b1-3)GlcNAc(b1-3)Gal(b1-4)GlcNAc(b1-6)[Gal(b1-3)GlcNAc(b1-3)]Gal(b1-4)Glc
# In short: as §1
# [42] = biological target: Gal(b1-3)GlcNAc(b1-3)Gal(b1-4)[Fuc(a1-3)]GlcNAc
# In short: as §1
# [43] = biological target: Gal(b1-3)GlcNAc(b1-3)Gal(b1-4)[Fuc(a1-3)]GlcNAc(b1-6)[Gal(b1-3)GlcNAc(b1-3)]Gal(b1-4)Glc
# In short: as §1
# [44] = biological target: Gal(b1-3)GlcNAc(b1-3)GalNAc
# In short: as §1
# [45] = biological target: Gal(b1-3)GlcNAc(b1-6)Gal(b1-4)GlcNAc
# In short: as §1
binder,measurement,setting,value
B1,glycan array binding signal (z-score),[1],-0.162
same,glycan array binding signal (z-score),[2],-0.115
same,glycan array binding signal (z-score),[3],-0.126
same,glycan array binding signal (z-score),[4],-0.166
same,glycan array binding signal (z-score),[5],-0.176
same,glycan array binding signal (z-score),[6],-0.174
same,glycan array binding signal (z-score),[7],-0.004
same,glycan array binding signal (z-score),[8],-0.162
same,glycan array binding signal (z-score),[9],-0.13
same,glycan array binding signal (z-score),[10],0.053
same,glycan array binding signal (z-score),[11],-0.124
same,glycan array binding signal (z-score),[12],-0.126
same,glycan array binding signal (z-score),[13],-0.161
same,glycan array binding signal (z-score),[14],-0.158
same,glycan array binding signal (z-score),[15],-0.157
same,glycan array binding signal (z-score),[16],-0.166
same,glycan array binding signal (z-score),[17],-0.147
same,glycan array binding signal (z-score),[18],-0.141
same,glycan array binding signal (z-score),[19],-0.14
same,glycan array binding signal (z-score),[20],-0.158
same,glycan array binding signal (z-score),[21],-0.175
same,glycan array binding signal (z-score),[22],-0.167
same,glycan array binding signal (z-score),[23],0.005
same,glycan array binding signal (z-score),[24],-0.154
same,glycan array binding signal (z-score),[25],-0.172
same,glycan array binding signal (z-score),[26],-0.168
same,glycan array binding signal (z-score),[27],-0.169
same,glycan array binding signal (z-score),[28],-0.176
same,glycan array binding signal (z-score),[29],-0.185
same,glycan array binding signal (z-score),[30],-0.09
same,glycan array binding signal (z-score),[31],0.069
same,glycan array binding signal (z-score),[32],-0.141
same,glycan array binding signal (z-score),[33],0.461
same,glycan array binding signal (z-score),[34],0.155
same,glycan array binding signal (z-score),[35],-0.13
same,glycan array binding signal (z-score),[36],-0.117
same,glycan array binding signal (z-score),[37],-0.161
same,glycan array binding signal (z-score),[38],0.006
same,glycan array binding signal (z-score),[39],1.02
same,glycan array binding signal (z-score),[40],0.772
same,glycan array binding signal (z-score),[41],-0.146
same,glycan array binding signal (z-score),[42],-0.132
same,glycan array binding signal (z-score),[43],-0.181
same,glycan array binding signal (z-score),[44],-0.144
same,glycan array binding signal (z-score),[45],-0.189

# Reference: the supplement of paper PMC8728848
